Results as given in PubChem BioAssay AID1745853 (National Center for Advancing Translational Sciences (NCATS), 2022).
This is one part of the list. Further columns of the screen follow, without active or inactive calls.

Key:
Assay in all cases: Primary Screen for Target Class Profiling of Small Molecule Inhibitors of Methyltransferases
[1] = molecular target: Glycine N-methyltransferase (Homo sapiens) (UniProt Q14749); settings: purified enzyme, MTase-Glo SAH luminescence; measured here: GNMT inhibition; at 40 µM; stronger effect = lower value
Excerpt: (§1) PI: Matthew D. Hall Ph.D. and Quinlin M. Hanson Ph.D.
(§2) National Center for Advancing Translational Sciences (NCATS)
(§3) National Institute of Health (NIH), Rockville, MD
(§4) Target class profiling (TCP) is a chemical biology approach amenable to investigating understudied biological targets. TCP is achieved by developing a generalizable assay platform and applying it to screen a curated set of compound libraries against representative members of a target class. Small molecule methyltransferases (SMMTase) are a subclass of methyltransferase that act on metabolites to modulate signaling pathways, metabolize xenobiotics, or balance the available methyl pool. We screened four curated libraries totaling 27,574 unique compounds against the SMMTases nicotinamide N-methyltransferase (NNMT), phenylethanolamine N-methyltransferase (PNMT), histamine N-methyltransferase (HNMT), glycine N-methyltransferase (GNMT), catechol O-methyltransferase (COMT), and guanidinoacetate N-methyltransferase (GAMT). The data generated by this TCP can be leveraged for informed tool molecule development. For example, in the associated publication we identified a chemotype of HNMT-selective inhibitors. Additionally, we identified a putative SMMTase-selective inhibitor with potential as a tool molecule for studying broader methyltransferase biology.
(§5) High-through put screening assays were developed at the National Center for Advancing Translational Science (NCATS) for the enzymes NNMT, PNMT, HNMT, GNMT, COMT, and GAMT. Enzymatic activity was measured as a function of SAM cofactor conversion using the MTase Glo kit (Promega) for all enzymes. All assays were performed in 1536-well format with substrates and SAM concentrations at KM values. Enzyme concentration and assay timing were optimized for 10-20% SAM conversion. Initial screening of 27,574 compounds was done as single-point assays using the highest compound concentration (40 uM). […] These compounds were replated in 11-point dose response and assayed against NNMT, PNMT, HNMT, GNMT, COMT, GAMT, and a counter-assay. The IC50 and efficacy (maximal response) values were determined for each dose-response curve. These values are also accounted for in the area under the curve (AUC) values.
(§6) PROTOCOL TABLE (as described by Inglese J, Shamu CE and Guy RK. 2007)
(§7) SEQUENCE No. (e.g., 1, 2, 3, etc.); […] (e.g., Cells, Incubation, Reagent, etc.); VALUE; DESCRIPTION.
(§8) 1; Reagent; 2 uL; SMMTase Enzyme (2x) in reaction buffer, columns 1- 48.
(§9) 2; Reagent; 1 uL; SAM (4x) in reaction buffer, columns 1-48.
(§10) 3; Controls; 23 nL; DMSO in column 4; sinefungin in DMSO (0 uM - 40 uM) in 7-point 1:2 dilution series (n = 2) in column 2.
(§11) 4; Compounds; 23 nL; Columns 5-48.
(§12) 5; Reagent; 1 uL; Substrate (4x) in reaction buffer, columns 2-48.
(§13) 6; Time; 20-30 min; Incubation.
(§14) 7; Reagent; 1 uL; MTase-Glo reagent (5X), columns 1-48.
(§15) 8; Time; 30 min; Incubation.
(§16) 9; Reagent; 5 uL; MTase-Glo Detection reagent, columns 1-48.
(§17) 10; Time; 30 min; Incubation, luminescence evolution.
(§18) 11; Detection; Luminescence; ViewLux uHTS Microplate Imager (PerkinElmer).
(§19) NOTES (numbers refer to Sequence numbers above)
(§20) 1, 2, 5. White Medium Binding Greiner 1536-well plates (Cat #789175-F, Greiner Bio-One, Monroe, NC); Reaction buffer: 50 mM Tris, pH 8.0, 3 mM MgCl2, 1 mM EDTA, 50 mM NaCl, 1 mM DTT, and 0.1 mg/mL BSA. Evaporation was prevented by covering assay plates with metal lids containing holes to allow gas diffusion.
(§21) 1. Six SMMTase were profiled: HNMT, GNMT, PNMT, COMT, NNMT, GAMT
(§22) 5. The corresponding substrate was used for each enzyme: HNMT - 5.3 uM Histamine; GNMT - >500 uM Glycine; PNMT - 16.2 uM Norephinephrine; COMT - 13.7 uM Norephinephrine; NNMT - 3.8 uM Nicotinamide; GAMT - 2.5 uM Guanidinoacetate.6, 8, 10. Room temperature
(§23) 6. Final reaction conditions: 10 nM COMT, 5 uM SAM, 15 uM norepinephrine, 50 mM Tris, pH 8.0, 3 mM MgCl2, 1 mM EDTA, 50 mM NaCl, 1 mM DTT, and 0.1 mg/mL BSA; refer to tables 2 and S1 for specific timing.
8. […]

[2] = molecular target: Guanidinoacetate N-methyltransferase (Homo sapiens) (UniProt Q14353); settings: purified enzyme, MTase-Glo SAH luminescence; measured here: GAMT inhibition; at 40 µM; stronger effect = lower value
Excerpt: as §1, §2, §3, §4, §5, §6, §7, §8, §9, §10, §11, §12, §13, §14, §15, §16, §17, §18, §19, §20, §21, §22, §23
8. […]

[3] = molecular target: Histamine N-methyltransferase (Homo sapiens) (UniProt P50135); settings: purified enzyme, MTase-Glo SAH luminescence; measured here: HNMT inhibition; at 40 µM; stronger effect = lower value
Excerpt: as §1, §2, §3, §4, §5, §6, §7, §8, §9, §10, §11, §12, §13, §14, §15, §16, §17, §18, §19, §20, §21, §22, §23
8. […]

[4] = molecular target: Nicotinamide N-methyltransferase (Homo sapiens) (UniProt P40261); settings: purified enzyme, MTase-Glo SAH luminescence; measured here: NNMT inhibition; at 40 µM; stronger effect = lower value
Excerpt: as §1, §2, §3, §4, §5, §6, §7, §8, §9, §10, §11, §12, §13, §14, §15, §16, §17, §18, §19, §20, §21, §22, §23
8. […]

[5] = molecular target: Phenylethanolamine N-methyltransferase (Homo sapiens) (UniProt P11086); settings: purified enzyme, MTase-Glo SAH luminescence; measured here: PNMT inhibition; at 40 µM; stronger effect = lower value
Excerpt: as §1, §2, §3, §4, §5, §6, §7, §8, §9, §10, §11, §12, §13, §14, §15, §16, §17, §18, §19, §20, §21, §22, §23
8. […]
% is scaled to controls: 0 for no effect and ±100 for the full control effect.

SMILES	activity change, negative = inhibition [1] [%]	activity change, negative = inhibition [2] [%]	activity change, negative = inhibition [3] [%]	activity change, negative = inhibition [4] [%]	activity change, negative = inhibition [5] [%]
COCCCNC(=O)N1Cc2ccccc2-n2cccc2C1c1ccc(F)cc1 (stereo not given)	0.04	0	-1.18	3.64	2.16
COc1ccc(C)cc1NC(=O)N1Cc2ccccc2-n2cccc2C1c1ccc(N(C)C)cc1 (stereo not given)	7.75	0.502	3.35	1.72	7.18
CCOC(=O)c1cccc(NC(=O)N2Cc3ccccc3-n3cccc3C2c2ccc(C)cc2)c1 (stereo not given)	-1.67	-2.25	-5.06	-3.85	-5.55
Cc1[nH]c2ccc(Cl)cc2c1CCN(C)C	2.86	8.87	-51	-9.08	4.33
CCOc1ccc(C2c3cccn3-c3ccccc3CN2C(=O)NCCC(C)C)cc1 (stereo not given)	2.81	0.538	7.65	6.12	10.1
Cc1ccc([C@H]2CN(C(=O)CN3C(=O)CNC3=O)[C@@H]3C4CCN(CC4)[C@H]23)cc1	-7.06	-11.5	-6.12	-14.3	6.3
Cc1ccc(C2c3cccn3-c3ccccc3CN2C(=O)Nc2ccc(F)cc2)cc1 (stereo not given)	6.62	-1.57	2.57	-1.13	0.158
CCOC(=O)Cc1ccc(NC(=O)N2Cc3ccccc3-n3cccc3C2c2cccc(C)c2)cc1 (stereo not given)	1.17	-0.904	-2.71	-3.53	-4.97
Cc1ccc(Cl)cc1NC(=O)N1Cc2ccccc2-n2cccc2C1c1cccs1 (stereo not given)	3.52	0.204	-0.776	-1.41	4.33
CC(CCc1ccc(O)cc1)O[C@@H]1O[C@H](CO[C@H]2OC[C@](O)(CO)[C@H]2O)[C@@H](O)[C@H](O)[C@H]1O (stereo not given in full)	0	7.64	11.1	-2.81	4.4
CCOC(=O)CC1(NC(=O)N2Cc3ccccc3-n3cccc3C2C)CCCCC1 (stereo not given)	9.8	3.89	4.27	-4.99	1.16
CN(CC[C@H](N)CC(=O)N[C@H]1C=C[C@@H](n2ccc(N)nc2=O)O[C@@H]1C(=O)O)C(=N)N	5.99	6.33	10.5	-4.71	4.36
O=C(N1CCCCC1Cc1ccccc1)n1cc(-c2ccc(-c3ccccc3)cc2)nn1 (stereo not given)	3.46	-5.09	5.14	-37.1	-10.7
Cc1cccc(NC(=O)c2ccc(C(F)(F)F)cc2C(=O)O)n1	-0.211	-3.19	1.17	-15.2	-2.03
COc1ccccc1CC(=O)N1CCN(C2CCN(C)C2=O)CC1 (stereo not given)	-0.34	-1.74	1.02	-0.481	3.83
CSc1ccc(C2c3cccn3-c3ccccc3CN2C(=O)NC(C)C)cc1 (stereo not given)	-5.42	0	1.48	-5.41	1.06
CCCNC(=O)N1Cc2ccccc2-n2cccc2C1c1ccc(N(C)C)cc1 (stereo not given)	8.88	0	1.32	0.177	6.86
CCOC(=O)CNC(=O)N1Cc2ccccc2-n2cccc2C1c1cccs1 (stereo not given)	4.47	1.92	-10.1	-3.72	0.662
CC1c2cccn2-c2ccccc2CN1C(=O)NCc1ccco1 (stereo not given)	3.47	2.11	-3.29	-4.16	3.75
CC(=O)[C@H]1CCC2C3CC[C@H]4C[C@H](O)CC[C@]4(C)C3CC[C@@]21C (stereo not given in full)	2.69	9.34	5	-5.54	6.25
O=C(O)c1ccnc2cc(C(OCCN3CCCCC3)c3ccccc3Cl)[nH]c12 (stereo not given)	-6.5	-7.83	6.09	-13.9	-1.36
C=CC(C)(C)C12C=C(O)C(=O)N3/C(=C\c4cnc[nH]4)C(=O)NC31N(OC)c1ccccc12 (stereo not given)	-0.887	-15.2	-40.8	-25.9	-6.86
CCC1c2cccn2-c2ccccc2CN1C(=O)Nc1cccc(C(F)(F)F)c1 (stereo not given)	-0.51	0.944	-2.14	-6.54	-2.83
Cc1cccc(NC(=O)N2Cc3ccccc3-n3cccc3C2c2ccc(Cl)cc2)c1C (stereo not given)	0.3	0	5.96	8.73	6.19
COc1cccc(CNC(=O)N2Cc3ccccc3-n3cccc3C2c2cccs2)c1 (stereo not given)	3.7	1.72	-9.45	-10.6	-2.14
CC(C)c1cccc(C(C)C)c1O	3.74	15.1	6.99	-0.052	12.9
CN(C)c1nc2c(c(N3C[C@H]4CNC[C@@]4(C(=O)O)C3)n1)CCCC2	-1.09	-1.71	-0.273	-2.64	-18.3
CCOc1ccc(C2c3cccn3-c3ccccc3CN2C(=O)Nc2ccc(C)cc2C)cc1 (stereo not given)	-2.76	0.153	4.17	4.8	6.07
CCc1ccccc1NC(=O)N1Cc2ccccc2-n2cccc2C1c1ccc(OC)c(OC)c1 (stereo not given)	13.8	2.46	8.11	6.59	9.97
C[C@]12CC[C@H](O[C@@H]3O[C@H](CO)[C@@H](O)[C@H](O)[C@H]3O)CC1CC[C@@H]1C2CC[C@]2(C)[C@@H](C3=CC(=O)OC3)CC[C@]12O (stereo not given in full)	2.76	0.393	9	-11.8	5.06
